Assay results as given in PubChem BioAssay AID488969 (Vanderbilt High Throughput Screening Facility, 2010).
Over roughly 110,000 compounds, “z-score” has its median near -0.1; the highest 2% begin near 2. The list shows a part of the results. Active and inactive are the calls of the source.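 Rule for the calls: active = z-score in the third read window above 3 or below -3; inactive = the rest.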

molecular target: Metabotropic glutamate receptor 8 (Rattus norvegicus) (UniProt P70579); experiment: rat mGluR8 modulators via GIRK flux, primary screen, cell-based, thallium flux, HTS (AID 488969); details: HEK293 rat mGluR8, GIRK (G protein-gated inwardly rectifying potassium channel) thallium flux, FluoZin2; at 10 µM; stronger effect = higher value; submaximal glutamate (EC20) added with thallium
Sequence of UniProt P70579 (P70579 whole entry, looked up): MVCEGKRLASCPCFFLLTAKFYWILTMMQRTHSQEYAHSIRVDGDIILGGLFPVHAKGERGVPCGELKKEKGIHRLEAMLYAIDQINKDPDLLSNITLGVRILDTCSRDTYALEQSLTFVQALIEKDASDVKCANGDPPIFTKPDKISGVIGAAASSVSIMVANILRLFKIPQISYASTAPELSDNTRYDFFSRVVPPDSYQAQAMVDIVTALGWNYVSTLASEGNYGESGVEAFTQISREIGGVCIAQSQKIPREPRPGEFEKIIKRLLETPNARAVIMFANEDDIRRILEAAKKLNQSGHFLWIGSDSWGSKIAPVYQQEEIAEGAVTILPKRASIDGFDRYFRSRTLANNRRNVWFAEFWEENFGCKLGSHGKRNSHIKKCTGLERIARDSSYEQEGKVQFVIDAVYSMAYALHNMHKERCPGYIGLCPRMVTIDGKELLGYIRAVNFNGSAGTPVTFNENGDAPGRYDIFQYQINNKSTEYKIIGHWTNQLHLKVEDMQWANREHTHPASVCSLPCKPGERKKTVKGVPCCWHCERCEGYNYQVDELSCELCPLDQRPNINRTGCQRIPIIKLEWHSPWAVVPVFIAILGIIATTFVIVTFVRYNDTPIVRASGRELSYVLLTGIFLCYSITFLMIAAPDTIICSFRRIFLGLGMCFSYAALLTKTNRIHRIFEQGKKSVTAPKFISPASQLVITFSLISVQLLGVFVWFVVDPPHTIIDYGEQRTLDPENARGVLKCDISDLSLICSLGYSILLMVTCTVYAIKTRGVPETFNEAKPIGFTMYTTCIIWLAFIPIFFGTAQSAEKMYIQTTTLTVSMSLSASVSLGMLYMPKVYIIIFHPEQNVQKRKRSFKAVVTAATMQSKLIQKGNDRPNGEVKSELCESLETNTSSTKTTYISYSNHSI

Row | SMILES | z-score
1 | Cc1cc(OCc2ccc(C(=O)n3cccn3)o2)ccc1Cl | -0.284
2 | C=CCOc1cccc(C2/C(=C(/O)c3ccc(C)cc3)C(=O)C(=O)N2CCN2CCOCC2)c1 (configuration not stated) | active: 3.31
3 | CCCOc1ccc(Cl)cc1CN1CCOCC1 | -0.0364
4 | COc1ccccc1NS(=O)(=O)c1cccc(NC(=O)Nc2ccccc2)c1 | -0.086
5 | COC(=O)C1=CNC=C(C(=O)OC)C1c1cccc(OC)c1 | -0.422
6 | COc1cc(/C=N/N2C(=O)CSC2=S)ccc1O | 0.218
7 | COc1ccccc1NC(=O)N(Cc1ccco1)Cc1cc2cc(C)cc(C)c2[nH]c1=O | -0.691
8 | O=[N+]([O-])c1ccc(O)c(/C=N/n2cnnc2)c1 | 0.0326
9 | O=C(Nc1c(C(=O)N2CCOCC2)cnn1-c1ccccc1Cl)c1ccco1 | -0.159
10 | CC(=O)Nc1cc(C(F)(F)F)ccc1OCC1CCCO1 (configuration not stated) | 0.0261
11 | CCOC(=O)c1c2c(n(C)c1COC)C(=O)C(=O)c1ccc(Br)cc1-2 | -0.214
12 | COc1cccc(N2C(=O)CC(NNC(=O)c3cccs3)C2=O)c1 (configuration not stated) | 0.0345
13 | Cn1nnnc1SCC(=O)N1CCN(c2ccc(Cl)cc2)CC1 | 0.736
14 | Cn1c(SCCOc2ccccc2Cl)nnc1-c1cccs1 | -0.314
15 | Cn1nnnc1SCC(=O)NC(=O)NCc1ccccc1 | 0.279
16 | O=C(NC(=S)N(Cc1ccccc1)Cc1ccccc1)C1CCCCC1 | 0.526
17 | Cc1[nH]c(=O)c(C(=O)/C=C/c2ccccc2)c2c1CCCC2 | 0.984
18 | O=S(=O)(Nc1ccc(-c2csc(-c3ccccc3)n2)cc1)c1ccc(F)cc1 | 0.17
19 | CC(=O)c1cccc(NC2c3ncccc3C(=O)N2Cc2ccco2)c1 (configuration not stated) | 0.0428
20 | Cc1ccc(NC(=O)c2cc(C)nn2-c2ccccc2)cc1 | -0.22
21 | COc1ccc(CNC(=O)c2cccc(N3CCCC3=O)c2)cc1 | -0.0471
22 | COCc1cc(Sc2cccc(Cl)c2Cl)nc(-c2ccccc2)n1 | -0.293

Row | SMILES | z-score
23 | CSc1nc2nc(-c3ccccc3)cc(=O)n2[nH]1 | -0.443
24 | CC1CC(C)CN(C(=O)C(NS(=O)(=O)c2ccc3c(c2)oc(=O)n3C)C(C)C)C1 (configuration not stated) | 0.0168
25 | FC(F)(F)c1cc(-c2cccs2)nc(N2CCOCC2)n1 | 0.297
26 | Cc1ccc(N(C(C)C(=O)O)S(=O)(=O)c2c(C)n[nH]c2C)cc1 (configuration not stated) | 0.525
27 | O=C(Cn1nnc(-c2ccccc2)n1)N1CCN(S(=O)(=O)c2ccc(Cl)cc2)CC1 | -1.25
28 | CCOc1cccc(/C(O)=C2/C(=O)C(=O)N(Cc3cccnc3)C2c2ccco2)c1 (configuration not stated) | -0.0208
29 | C/C(=C(\C#N)C(=O)NCCCN1CCOCC1)N(C)C | 0.592
30 | Cc1cccc(NC(=O)Cn2c(=O)n3nc(CCn4nc(C)cc4C)nc3c3ccccc32)c1 | -0.0936
31 | CCN(C(=O)COC(=O)c1c(NC(C)=O)sc(C)c1C)C1CCS(=O)(=O)C1 (configuration not stated) | -1.8
32 | COc1ccc(CNC(=O)CSCc2cccc(Cl)c2)cc1 | -0.235
33 | COc1ccc(NC(=O)/C(=C/c2ccc3c(c2)OCO3)NC(C)=O)cc1 | -0.031
34 | O=C1C2CCCN2C(c2ccccc2F)N1c1ccc(Cl)cc1 (configuration not stated) | -0.173
35 | O=C(Nc1cccnc1Cl)c1ccc(S(=O)(=O)N2CCCCCC2)cc1 | -0.00431
36 | Cc1ccc(NC(=O)CCn2c(=O)oc3ccccc32)cc1 | 0.149
37 | Cc1c(C(=O)N2CCN(c3ccccn3)CC2)sc2ncnc(N3CCOCC3)c12 | 0.116
38 | O=C(N/N=C\c1cn(-c2ccccc2)nc1-c1ccccc1)c1ccc2c(c1)OCO2 | 0.000201
39 | CC(C)Cc1nc(N2CCC(C(N)=O)CC2)c2nnn(Cc3ccccc3)c2n1 | 0.128
40 | CCOC(=O)N1CCC(n2c(SCC(=O)NCc3ccco3)nc3ccsc3c2=O)CC1 | -0.557
41 | Cc1ccc(C(C)n2cc(C(=O)NCCN3CCN(C)CC3)nn2)cc1 (configuration not stated) | -0.0667
42 | CCOc1cc(C(=O)Nc2cc(C)ccc2OC)ccc1OCC(=O)N1CCCCC1 | -0.313
43 | Cc1ccc(Nc2nnc(SCC(=O)NCCN3C(=O)CSC3=O)s2)cc1 | 0.881
44 | COC(CNC(=O)C1CC(=O)N(CCc2ccccc2)C1)OC (configuration not stated) | 0.00594

Row | SMILES | z-score
45 | CCCC(=O)Nc1nnc(-c2cccc(OCC)c2)s1 | 0.633
46 | CC(Cc1ccccc1)N/C=C1\CC(=O)NC1=O (configuration not stated) | 0.465
47 | CCCCOc1ccc(/C=C/C(=O)NCCc2nc3ccccc3[nH]2)cc1 | -0.161
48 | N#C/C(=C\c1ccc(Oc2ccc(C(F)(F)F)cc2[N+](=O)[O-])cc1)c1nc2ccccc2[nH]1 | 0.0845
49 | Cc1cc(OCC(=O)N(C)C)c2c(-c3ccccc3)cc(=O)oc2c1 | -0.759
50 | Nc1ncnc(Nc2ccccc2C(F)(F)F)n1 | -0.11
51 | CC(=O)N(CC1CCCO1)c1nnc(-c2cnccn2)s1 (configuration not stated) | -0.354
52 | CCn1c(SCC(=O)c2ccc(Cl)cc2)nnc1-c1ccoc1C | -0.648
53 | COc1cc(NC(=O)c2cc(C(C)C)on2)cc(OC)c1OC | -0.744
54 | O=C1c2cccnc2Oc2ccc(Cl)cc2N1Cc1ccc(F)cc1 | -0.261
55 | CCCNC(=O)C1CNc2ccccc2O1 (configuration not stated) | -0.2
56 | Cc1ccc(N(C(=O)Cn2nnc(-c3cccs3)n2)C(C(=O)NC2CCCC2)c2ccncc2)cc1 (configuration not stated) | -0.291
57 | COCCN(C(=O)c1ccco1)C(C(=O)NC1CCCC1)c1cccs1 (configuration not stated) | 0.0705
58 | COc1ccc(C(=O)/C=C/c2ccccc2C(F)(F)F)cc1 | -0.168
59 | CCOC(=O)C(=O)C1=C(N2CCOCC2)/C(=C\c2ccc(F)cc2)CC1 | 0.475
60 | CCc1ccc(OCC(=O)N/N=C/c2ccc(OS(=O)(=O)c3ccc(C)cc3)c(OC)c2)cc1 | -0.212
61 | COc1cc(OC)cc(C(=O)Nc2ccc(-c3nc4ccccc4o3)c(O)c2)c1 | 0.108
62 | CCCCNS(=O)(=O)c1ccc2c(c1)oc(=O)n2CC(=O)OCC | 0.0209
63 | Cc1ccc(C(=O)OC/C(O)=C(\C#N)c2nc3ccccc3[nH]2)cc1S(=O)(=O)N1CCOCC1 | -0.0249
64 | COc1ccc(C2C(C(=O)Nc3cccc(C)n3)c3ccccc3C(=O)N2C)cc1 (configuration not stated) | -0.223
65 | COC(=O)C1(C)NC(c2ccco2)C2C(=O)N(c3ccc(C)cc3)C(=O)C21 (configuration not stated) | 0.163
66 | CS(=O)(=O)N(CC(=O)Nc1ccc2c(c1)OCCO2)Cc1ccc(Cl)cc1 | 0.312

Row | SMILES | z-score
67 | O=C(c1ccccc1)N1CCN(C(=O)c2ccc([N+](=O)[O-])cc2)CC1 | -0.0358
68 | COc1ccccc1C(=O)Nc1nc(N)n(-c2ccccc2)n1 | -0.666
69 | COc1ccccc1Oc1ccc(S(=O)(=O)NCc2ccccn2)cc1 | 0.0652
70 | O=C(NCc1ccccn1)C1CCN(Cc2cnn(-c3ccccc3)c2-n2cccc2)CC1 | -0.0285
71 | O=C(Nc1c(Cl)ccc2nsnc12)c1cccnc1 | -0.111
72 | CC(=O)c1oc2ccccc2c1NC(=O)CCCN1C(=O)c2ccccc2C1=O | 0.31
73 | CC1CCC(N2CCN(c3ncccn3)CC2)CC1 (configuration not stated) | -0.212
74 | O=C(CSc1nccn1-c1ccccc1)c1ccc(Cl)cc1 | -0.149
75 | COc1ccc(Br)cc1C(=O)Nc1nnn(C)n1 | 0.411
76 | CCc1cc2cc(C)c(C)cc2nc1SCC(=O)NNC(=O)c1ccco1 | 0.26
77 | Cc1ccc(C(=O)OCC(=O)c2c(N)n(C)c(=O)n(C)c2=O)cc1S(=O)(=O)N1CCCCC1 | -0.447
78 | O=C1c2ccccc2S(=O)(=O)c2cc(C(=O)N(c3ccccn3)c3ccccn3)ccc21 | -0.991
79 | Cc1ccc(S(=O)(=O)NCCC(=O)Nc2ccc(Cl)c(Cl)c2)cc1C | -0.0519
80 | CC1C(=O)Nc2ccccc2N1C(=O)C1CC1 (configuration not stated) | -0.0821
81 | CSc1nc(C)c2c(c1C#N)CCCC2 | 0.402
82 | C=CCN(C(=O)CNC(=O)c1ccco1)C(C(=O)NC1CCCCC1)c1ccccc1F (configuration not stated) | -0.119
83 | COc1ccc([C@H]2[C@H](C(=O)C(C)(C)C)N3N=Cc4ccccc4C3C23C(=O)OC(C)(C)OC3=O)cc1 (some centres not stated) | 0.18
84 | COc1ccc2c(C(=O)CN3CCN(c4ccccc4)CC3)c[nH]c2c1 | 0.0118
85 | CCOC(=O)c1ccc(N2C(=O)CC(N3CCC(O)(c4ccc(Cl)cc4)CC3)C2=O)cc1 (configuration not stated) | 0.433
86 | COCC(C)OC(=O)c1c(N)n(CC(C)C)c2nc3ccccc3nc12 (configuration not stated) | active: -3.75
87 | Cc1nnc(Sc2c(-c3ccccc3)c3ccc(Cl)cc3[nH]c2=O)s1 | -0.273
88 | CC1CCC(NC(=O)Nc2cccs2)CC1 (configuration not stated) | 0.643

Row | SMILES | z-score
89 | CC1CCN(C(=O)Nc2ccc3nsnc3c2)CC1 | -0.183
90 | Cc1nc(NNC(=O)c2ccc([N+](=O)[O-])cc2)cc(-c2ccccc2)n1 | -0.171
91 | CCOCCCNC(=O)C1CCN(S(=O)(=O)N2CC(C)CC(C)C2)CC1 (configuration not stated) | -0.22
92 | Cc1nn(C)c(C)c1CNC(=O)c1cc2n(n1)C(C(F)(F)F)CC(c1cccs1)N2 (configuration not stated) | -0.345
93 | COc1ccc2c(C=O)c[nH]c2c1 | -0.452
94 | O=C(O)C1CCN(c2ncccn2)CC1 | -0.024
95 | CCn1cnc2c(cnn2-c2ccccc2)c1=O | -0.902
96 | N#C/C(=C\c1cn(CCOc2ccccc2)c2ccccc12)C(=O)NCc1ccco1 | -0.0113
97 | CCOC(=O)Cc1csc(N/C(=N/S(=O)(=O)c2ccc(F)cc2F)c2ccccc2)n1 | 0.0927
98 | COc1ccc(C(CNC(=O)CN2C(=O)NC3(CC(C)CC(C)(C)C3)C2=O)N2CCOCC2)cc1 (configuration not stated) | -0.081
99 | CSc1nc2ccc(S(=O)(=O)N3CCCC3)cc2s1 | -0.112
100 | CCC(=O)N1CCN(c2ccccc2NC(=O)c2ccc(-c3cccc([N+](=O)[O-])c3)o2)CC1 | 0.059
101 | Cc1cccc(OCC(=O)N/N=C\c2cc3c(cc2[N+](=O)[O-])OCO3)c1C | -0.147
102 | CC(=O)CC1(C)OC(N)=C(C#N)C1(C#N)C#N (configuration not stated) | -0.0692
103 | Cc1cc(C)cc(N(CC(=O)NCC2CCCO2)C(=O)CCC(=O)Nc2cc(C)on2)c1 (configuration not stated) | -0.639
104 | Cc1cc(NC(=O)Cn2c(C)nc3ccccc3c2=O)ccc1Br | -0.0994
105 | COc1ccccc1N1CCN(C(=O)C2CCN(S(=O)(=O)N3CCOCC3)CC2)CC1 | 0.126
106 | O=C(CCC1CC(=O)Nc2ccccc21)NCc1ccccc1 (configuration not stated) | 0.23
107 | CCC(CC)C(=O)Nc1nnc(SCC(=O)N2CCN(c3ccccc3OC)CC2)s1 | -0.609
